# Hit rate of the full screen: of about 350,000 compounds, about 260 (0.074%) were called active. The shares of active, inactive and inconclusive entries below differ from those in the screen. Calls come from the whole dose curve; as a rule, active = well fitted inhibition curve with a large enough effect; inconclusive = small, poorly fitted or top-dose-only effect; inactive = no such curve, though single readings can be large or run the other way. Where the call is inconclusive, the potency comes from a doubtful curve fit.
# Target: Ferritin light chain (Equus caballus) (UniProt P02791)
# Experiment: qHTS Assay for Identification of Novel General Anesthetics; note: nearly all actives have a fitted effect of over 20% in size
# Details: apoferritin/1-aminoanthracene competitive binding, fluorescence; activity change, negative = displacement: at 77.5 µM (top of the series)
# How it was run: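 Read-out: endpoint 1-AMA fluorescence, excitation 380 nm and emission 535 nm, after compounds sit 10 min at room temperature with 10 uM horse-spleen apoferritin in 50% saturated 1-AMA/PBS. Values come from four-parameter Hill fits.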
# % is set by controls: 0 for no effect and ±100 for the full control effect; potency is the fitted concentration of half-maximal effect; tags give direction and shape of the fitted curve.
# Sequence of UniProt P02791 (P02791 whole entry, looked up): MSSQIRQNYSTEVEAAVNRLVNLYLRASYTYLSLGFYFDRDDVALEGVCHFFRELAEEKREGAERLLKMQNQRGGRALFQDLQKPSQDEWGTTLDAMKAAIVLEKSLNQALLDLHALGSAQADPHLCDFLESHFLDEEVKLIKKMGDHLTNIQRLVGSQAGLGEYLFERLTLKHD
SMILES,"activity change, negative = displacement",Potency
O=C(CCCN1C(=O)c2cccnc2Oc2ccc(Cl)cc21)NCc1ccccc1F,inactive: 2.12%,
C=CCn1c(SCC(=O)Nc2nccs2)nnc1-c1ccco1,,"inconclusive: 39.8 µM [inhibitor, single point]"
C/C(=N/NC(=O)CNC(=O)CCc1ccccc1)c1ccc(Cl)c(Cl)c1,,"inconclusive: 39.8 µM [inhibitor, single point]"
Cc1ccc(C)c(N2CCN(C(=O)c3cc(C)nc4c3c(C)nn4-c3cccc(F)c3)CC2)c1,,"inconclusive: 0.794 µM [inhibitor, full curve]"
Fc1ccccc1N1CCN(C2CCN(Cc3c[nH]c4ccccc34)CC2)CC1,,"inconclusive: 89.1 µM [inhibitor, partial curve]"
CN1C=CC=C/C1=C1\SC(=S)N(C2CCCCC2)C1=O,,"inconclusive: 11.2 µM [inhibitor, partial curve, poor fit]"
Cc1oc(-c2cccc(Cl)c2)nc1CS(=O)(=O)CC(=O)NCc1ccccc1Cl,,"inconclusive: 28.2 µM [inhibitor, single point]"
CC(C)N(CCNCC(O)COc1ccc(C(C)(C)c2ccccc2)cc1)C(C)C (stereo not drawn),,"inconclusive: 15.8 µM [inhibitor, partial curve]"
CCOC(=O)COc1ccc2c(C)cc(=O)oc2c1C(=O)c1ccccc1,,"inconclusive: 25.1 µM [inhibitor, partial curve]"
O=C(CSc1nnc(-c2ccccn2)n1Cc1ccco1)c1ccc(Cl)cc1,,"inconclusive: 31.6 µM [inhibitor, partial curve]"
CCOc1ccc2nc(NC(=O)CSc3nc(-c4ccccc4)c(C#N)c(=O)[nH]3)sc2c1,inactive: -5.31%,
N#Cc1ccc(C(=O)NCc2ccc3c(c2)CCN3C(=O)c2ccc(F)cc2)cc1,,"inconclusive: 14.1 µM [inhibitor, partial curve]"
CCOC(=O)c1ccc(N2C(=O)c3n[nH]c(C)c3C2c2ccccc2OC)cc1 (stereo not drawn),inactive: -13.5%,
CCc1ccc(OCC(=O)NC(NC(=S)Nc2ccccc2)C(Cl)(Cl)Cl)cc1 (stereo not drawn),inactive: 2.64%,
CCOc1ccc(N(C(=O)c2snc(C(N)=O)c2N)C(C(=O)NCC2CCCO2)c2ccc(C)o2)cc1 (stereo not drawn),,"inconclusive: 22.4 µM [inhibitor, partial curve]"
CCOC(=O)N1CCN(c2ccc(C(=O)c3ccccc3)cc2F)CC1,,"inconclusive: 25.1 µM [inhibitor, partial curve]"
CC(NCC(O)COc1ccc2ccccc2c1)c1ccccc1 (stereo not drawn),,"inconclusive: 56.2 µM [inhibitor, single point]"
COC(=O)c1ccc(NC(=O)CN(CCc2ccccc2)S(=O)(=O)c2ccc(OC)cc2)cc1,inactive: 83.1%,
